Results on 172 sequences are retold here after article PMC10668032.

This is one part of the list. At the low end of the ranking the order means little.

For this assay, the target named is SIX1-Q177R homeodomain (UniProt Q15475). The assay can be described thus: universal protein binding microarray. The settings on record: Universal all-10-mer PBM (8x60K, AMADID 030236), 300 nM GST-tagged protein, Alexa Fluor 488 anti-GST; buffer, salt, pH and temperature not stated; high values mean tight binding; most listed sequences are background and not binding sites; double strand, one strand shown.
For the sequence ACTTGTCA, the binding signal was found to be 0.0416 E-score.
For the sequence ACTTGAAG, the binding signal turned out to be 0.0635 E-score.
With GATGTCAC the figure was 0.0447 E-score.
With GCAACGGA the figure was -0.0926 E-score; with GTCAACAA, 0.111 E-score; with AGGATTAT, -0.153 E-score.
For the sequence GGTTGAAA, the binding signal was -0.0735 E-score.
With CTGGCTGC the figure was -0.0483 E-score.
Turning to CAGTGTAC, the binding signal was determined as 0.404 E-score.
With AGGTGTTA the figure was 0.463 E-score; with GAACAACC, -0.0972 E-score; with GACCTTCA, -0.311 E-score.
With ATTGCTTA the figure was -0.21 E-score; with AGTTTGTA, -0.0869 E-score.
With AGGGACAT the figure was -0.0868 E-score; with AGGTCGCC, -0.213 E-score; with AACCCCTC, 0.27 E-score.
As to ACATGCTC, the binding signal was -0.162 E-score.
As to ATTTCTTA, the binding signal was -0.189 E-score.
With CGGGCATA the figure was 0.121 E-score; with AGGCCATC, -0.232 E-score.
With CGGCACGA the figure was 0.0663 E-score; with CACTTAGC, 0.179 E-score.
As to AACGACTG, the binding signal is -0.125 E-score.
With CCAGCCCC the figure was -0.0112 E-score; with TACCCAAA, 0.067 E-score; with GTGACCCA, 0.0818 E-score.
With CCTCCTCA the figure was 0.0152 E-score; with GACATGCA, -0.0151 E-score; with AATGCGAA, -0.139 E-score.
With CTAGCATC the figure was -0.264 E-score; with CGCTTGCC, -0.128 E-score.
On to CCTCGAAA, for which the binding signal was -0.0416 E-score.
As for CGCACCTA, the binding signal turned out to be 0.105 E-score.
With AGGACTAT the figure was -0.0342 E-score.
For the sequence CGTGATGA, the binding signal is -0.0522 E-score.
In the case of CGTCCGAA, the binding signal was -0.0907 E-score.
Regarding CTTGGTTC, the binding signal amounted to 0.0163 E-score.
In the case of CGAAGGAC, the binding signal is 0.0191 E-score.
Regarding CGGCACCC, the binding signal was -0.00027 E-score.
With TACTCCAA the figure was 0.198 E-score; with AATCGATT, -0.103 E-score.
For the sequence CAACCGAA, the binding signal is -0.128 E-score.
With AAGTCACA the figure was -0.0394 E-score; with CATTTCAA, -0.287 E-score.
Consider CTAGAAGC, for which the binding signal was -0.121 E-score.
With AAATTCTT the figure was -0.232 E-score.
As to CGAGGTCC, the binding signal is -0.0846 E-score.
With GCGATTCA the figure was -0.261 E-score; with CGTCGCTA, -0.101 E-score; with ATTAAGCC, -0.171 E-score.
As to AGGTACAC, the binding signal turned out to be 0.452 E-score.
With GGTATGAA, the binding signal was 0.0694 E-score.
With GGCGGTGA the figure was -0.108 E-score.
Regarding AAAGACTA, the binding signal is -0.135 E-score.
Take GTGCTGCA: the binding signal worked out at 0.0761 E-score.
With ACGGTCGA the figure was -0.0471 E-score; with AAGGTTAG, -0.115 E-score; with AATCAAGT, -0.154 E-score.
CATGATTC: the binding signal is -0.123 E-score.
With AGTCGACC the figure was -0.14 E-score; with CATTGTTA, -0.0929 E-score.
As for AGGAGTAG, the binding signal turned out to be 0.094 E-score.
With CAAGACCC the figure was 0.0688 E-score.
For the sequence CGAGCCAG, the binding signal was -0.0412 E-score.
With TAGAAGCA, the binding signal is -0.155 E-score.
On to CTATCCAA, for which the binding signal was -0.124 E-score.
Consider TGCACAAA, for which the binding signal was -0.112 E-score.
With AACCGTGT the figure was 0.379 E-score; with TCACGAAA, -0.00904 E-score; with GGAACGCA, -0.0668 E-score.
With GTACCGAA the figure was -0.00781 E-score; with AGGTTAGC, -0.0108 E-score.
With CGAATCAC the figure was -0.108 E-score; with ATGCCAAA, -0.304 E-score; with AGTATTCC, -0.0478 E-score.
As for CAAGATTA, the binding signal was -0.246 E-score.
With ATGTGTGA the figure was 0.145 E-score; with TTTATAAA, -0.102 E-score; with ATAGGGGC, -0.115 E-score.
With AGCACTCC the figure was 0.102 E-score.
Regarding AGACTCGG, the binding signal is 0.16 E-score.
As for GAGCAAAA, the binding signal was -0.356 E-score.
Regarding ACGCTATC, the binding signal is 0.0345 E-score.
With CGCTTAGC the figure was -0.19 E-score; with ACGCACAG, 0.0283 E-score; with AAATTTTG, -0.242 E-score.
With AGAAGGGC the figure was 0.0188 E-score.
For CCTCATTC, the binding signal was 0.0209 E-score.
As to GACGGGGA, the binding signal was 0.0462 E-score.
With ACGGGCTC the figure was -0.06 E-score; with CGCAAACG, -0.176 E-score; with ATAGCTAG, -0.0581 E-score.
With TCAGTCAA the figure was -0.0949 E-score; with GGGTGTTA, 0.475 E-score.
As to GCCACCGA, the binding signal is 0.00267 E-score.
With CCTTCTGA the figure was 0.0361 E-score.
With CCCTGCGC the figure was -0.152 E-score.
Regarding CGACTATC, the binding signal is 0.0382 E-score.
Consider AAGTCACC, for which the binding signal is -0.126 E-score.
With ATCCAAAA the figure was -0.11 E-score; with TCTGTTCA, -0.0165 E-score.
With CCAAACCA, the binding signal is -0.176 E-score.
With CTTGTGCC the figure was 0.114 E-score.
In the case of GGCCACTA, the binding signal is 0.0106 E-score.
With GTACCCGA the figure was 0.134 E-score; with ACCAGGGG, 0.0932 E-score; with GGACTGTA, -0.199 E-score.
For CGTTTATA, the binding signal was -0.143 E-score.
Take ACAGGCTG: the binding signal was -0.117 E-score.
Regarding AGAAAGCT, the binding signal was -0.135 E-score.
With CCCGTCTC the figure was 0.239 E-score; with CACTTAAG, 0.107 E-score; with CTTATCGC, -0.106 E-score.
Regarding ATAGGGCA, the binding signal is -0.2 E-score.
With CGACTGAC, the binding signal is -0.0817 E-score.
With GCGCTAAA the figure was -0.101 E-score; with GATACCGC, 0.293 E-score; with AGATGAGC, -0.219 E-score.
With GCAGGTAC, the binding signal is -0.0392 E-score.
With GCTGAGCA the figure was -0.094 E-score.
Consider GTTATAAC, for which the binding signal amounted to 0.111 E-score.
With ATCGAGAT the figure was -0.0963 E-score.
As for AAAGGGCG, the binding signal is -0.0698 E-score.
With CGCAGGGC the figure was -0.0202 E-score.
With ACGCCAAC the figure was 0.0788 E-score; with ACGGGATG, 0.00155 E-score.
ACATCATG: the binding signal was -0.0397 E-score.
With AGATAAGA the figure was -0.0149 E-score.
With AGTAGAAC the figure was -0.0714 E-score; with CCCCGATA, 0.143 E-score.
With ATGTTTTC the figure was -0.0688 E-score.
With CTTACCCC, the binding signal is 0.197 E-score.
On to CCGCCGTC, for which the binding signal was -0.159 E-score.
With GGAGAGAA the figure was -0.0497 E-score; with AACTAGGC, -0.15 E-score.
With CGCGTAAA the figure was -0.0811 E-score.
In the case of GCTACTAC, the binding signal worked out at 0.00988 E-score.
With AACAAGGG the figure was 0.177 E-score; with CAGGTTGA, 0.0602 E-score.
In the case of CGCATATA, the binding signal was determined as 0.004 E-score.
With GAGTGACC the figure was -0.0399 E-score; with GGCTGAGA, -0.092 E-score.
With AGGGACTC the figure was -0.0544 E-score; with CGAACAGC, 0.0192 E-score; with ACACACCT, 0.386 E-score.
In the case of TAACAACA, the binding signal is -0.00137 E-score.
Take GGCCCATA: the binding signal is -0.308 E-score.
With GTTATAAA the figure was -0.0757 E-score.
Turning to GATCGCAA, the binding signal was -0.106 E-score.
With GGAAAACC, the binding signal is -0.162 E-score.
With ATGTGTCC the figure was 0.0873 E-score; with AGTTTCTC, -0.129 E-score.
With CGGGGCTA, the binding signal was -0.0526 E-score.
As for GAAATCAC, the binding signal is -0.119 E-score.
With AGTAACGG the figure was -0.0894 E-score.
With CAAATCAC, the binding signal was -0.159 E-score.
Regarding GCACCTAC, the binding signal amounted to 0.0592 E-score.
With TGCCCACA the figure was -0.0296 E-score.
With ACAGCTCG the figure was -0.231 E-score.
With CCTCTCTC the figure was 0.0406 E-score.
For TACACTCA, the binding signal was found to be 0.402 E-score.
Regarding GTGCAGGA, the binding signal came out at 0.0261 E-score.
For the sequence ACAAGCCG, the binding signal is -0.021 E-score.
With CTATTGAA the figure was -0.117 E-score; with ACCTGACC, 0.127 E-score.
With AACAGGTC the figure was -0.168 E-score.
Regarding AAACTCAT, the binding signal is -0.131 E-score.
With CACGTGTC the figure was 0.398 E-score.
Regarding GCAATACA, the binding signal was determined as 0.104 E-score.
Regarding CATTGTAG, the binding signal is -0.0744 E-score.
For ACCAGATG, the binding signal came to 0.0175 E-score.
